# A collection of fitness landscapes (doi:10.1126/science.1257360)
# The other results are listed elsewhere or left out.
# B1: PhoQ; a variant is named by its letters at X, in order, P23837 (parent)
# chain: MKKLLRLFFPLSLRVRFLLATAAVVLVLSLAYGMVALIGYSVSFDKTTFRLLRGESNLFYTLAKWENNKLHVELPENIDKQSPTMTLIYDENGQLLWAQRDVPWLMKMIQPDWLKSNGFHEIEADVNDTSLLLSGDHSIQQQLQEVREDDDDAEMTHSVAVNVYPATSRMPKLTIVVVDTIPVELKSSYMVWSWFIYVLSANLLLVIPLLWVAAWWSLRPIEALAKEVRELEEHNRELLNPATTRELTSLVRNLNRLLKSERERYDKYRTTLTDLTHSLKTPLXXLQXXLRSLRSEKMSVSDAEPVMLEQISRISQQIGYYLHRASMRGGTLLSRELHPVAPLLDNLTSALNKVYQRKGVNISLDISPEISFVGEQNDFVEVMGNVLDNACKYCLEFVEISARQTDEHLYIVVEDDGPGIPLSKREVIFDRGQRVDTLRPGQGVGLAVAREITEQYEGKIVAGESMLGGARMEVIFGRQHSAPKDE
# Variants of: B1
# Test: enrichment ratio after two sorts for PhoP signalling (ratio (wild type AVST 3.29)); higher = more functional
# Settings: with PhoP (E. coli)
row,Variant,enrichment ratio
1,LPCH,≤ 0.25
2,MEYY,18.8
3,VDYG,≤ 0.25
4,FWGT,≤ 0.25
5,FSLG,8.53
6,VNLV,8.16
7,TQNR,≤ 0.25
8,TNQY,9.69
9,RQNN,≤ 0.25
10,RNCR,≤ 0.25
11,LSAH,≤ 0.25
12,YKQL,≤ 0.25
13,ELWR,≤ 0.25
14,MCIS,≤ 0.25
15,WISM,≤ 0.25
16,FTIK,≤ 0.25
17,ADCW,≤ 0.25
18,APPP,≤ 0.25
19,DKKF,≤ 0.25
20,QVSE,≤ 0.25
21,RIAD,≤ 0.25
22,DHAL,≤ 0.25
23,WVAI,≤ 0.25
24,RPRG,≤ 0.25

row,Variant,enrichment ratio
1,QQLT,≤ 0.25
2,LQSM,≤ 0.25
3,FRCA,≤ 0.25
4,WGID,≤ 0.25
5,MQNN,≤ 0.25
6,AYAR,≤ 0.25
7,YAFH,≤ 0.25
8,PTHH,≤ 0.25
9,SQNE,≤ 0.25
10,FKHE,≤ 0.25
11,STIM,15.3
12,GDCI,≤ 0.25
13,KMIN,≤ 0.25
14,TWGI,≤ 0.25
15,FRPP,≤ 0.25
16,ICDY,≤ 0.25
17,MTNA,≤ 0.25
18,LDLM,≤ 0.25
19,ANHV,≤ 0.25
20,DNVW,≤ 0.25
21,VCKA,≤ 0.25
22,QRKG,≤ 0.25
23,PVHN,≤ 0.25
24,LCFL,≤ 0.25

row,Variant,enrichment ratio
1,WPDD,≤ 0.25
2,ICIT,≤ 0.25
3,YRAM,≤ 0.25
4,WKPR,≤ 0.25
5,QTSC,2.29
6,DMIN,≤ 0.25
7,QATP,≤ 0.25
8,DVVR,≤ 0.25
9,TYSA,7.8
10,KRQD,≤ 0.25
11,LEQM,≤ 0.25
12,GMPM,≤ 0.25
13,GSNM,≤ 0.25
14,RATR,≤ 0.25
15,FTWG,≤ 0.25
16,RIEI,≤ 0.25
17,TVSE,14.1
18,CFYQ,≤ 0.25
19,GERC,≤ 0.25
20,GTTV,≤ 0.25
21,TYYQ,≤ 0.25
22,STDN,≤ 0.25
23,FHLI,≤ 0.25
24,NHEL,≤ 0.25

row,Variant,enrichment ratio
1,LPHV,≤ 0.25
2,FDQW,≤ 0.25
3,TPAQ,≤ 0.25
4,SAHN,≤ 0.25
5,FCLW,≤ 0.25
6,KRDS,≤ 0.25
7,YFSF,≤ 0.25
8,QLDL,1.16
9,LLTT,≤ 0.25
10,SAKF,≤ 0.25
11,RLHC,≤ 0.25
12,VWYS,≤ 0.25
13,VWCY,≤ 0.25
14,EQPF,≤ 0.25
15,YPIY,≤ 0.25
16,GDKV,≤ 0.25
17,EKVD,≤ 0.25
18,CCCG,≤ 0.25
19,NLDA,≤ 0.25
20,MDTM,≤ 0.25
21,LTTS,≤ 0.25
22,WYFE,≤ 0.25
23,PIYW,≤ 0.25
24,LWFA,0.467

row,Variant,enrichment ratio
1,EGPS,≤ 0.25
2,NHAF,≤ 0.25
3,LQWI,≤ 0.25
4,LDLN,≤ 0.25
5,ETVG,≤ 0.25
6,HQCR,≤ 0.25
7,SFHC,≤ 0.25
8,RRRM,≤ 0.25
9,QRRF,≤ 0.25
10,TLDE,≤ 0.25
11,GETP,≤ 0.25
12,LGDN,≤ 0.25
13,ENVR,≤ 0.25
14,GPSC,≤ 0.25
15,PFHC,≤ 0.25
16,QKLV,2.4
17,TQTN,15.4
18,KSGR,≤ 0.25
19,QEDI,≤ 0.25
20,TYTM,4.58
21,INPS,≤ 0.25
22,IKFK,≤ 0.25
23,KSVK,≤ 0.25
24,LMWK,≤ 0.25

row,Variant,enrichment ratio
1,IVCI,≤ 0.25
2,IETY,≤ 0.25
3,FFCF,≤ 0.25
4,NDWP,≤ 0.25
5,FGIC,≤ 0.25
6,TCAH,11.7
7,RDVC,≤ 0.25
8,IHNF,≤ 0.25
9,RGMS,≤ 0.25
10,NITF,≤ 0.25
11,FNEV,≤ 0.25
12,AKWK,≤ 0.25
13,KYCH,≤ 0.25
14,YRTG,≤ 0.25
15,NRMY,≤ 0.25
16,LTIC,≤ 0.25
17,KLFM,≤ 0.25
18,LGMW,≤ 0.25
19,MQSQ,≤ 0.25
20,QANM,≤ 0.25
21,RVVM,≤ 0.25
22,RLDV,≤ 0.25
23,WIVC,≤ 0.25
24,VTVN,≤ 0.25

row,Variant,enrichment ratio
1,GQPG,≤ 0.25
2,TQSQ,8.74
3,QGKC,≤ 0.25
4,DYRV,≤ 0.25
5,PCGD,≤ 0.25
6,RYEH,≤ 0.25
7,IWMM,≤ 0.25
8,DMKM,≤ 0.25
9,TYLQ,≤ 0.25
10,FLVE,≤ 0.25
11,YFYP,≤ 0.25
12,ITWQ,≤ 0.25
13,MYNW,≤ 0.25
14,VPDG,≤ 0.25
15,DMSC,≤ 0.25
16,LHGG,≤ 0.25
17,ACRL,≤ 0.25
18,SMCV,9.73
19,PVKA,≤ 0.25
20,YPMN,≤ 0.25
21,FEWI,≤ 0.25
22,NLIQ,≤ 0.25
23,EIRT,≤ 0.25
24,HYTM,≤ 0.25

row,Variant,enrichment ratio
1,HYVH,≤ 0.25
2,GNFN,≤ 0.25
3,HASL,≤ 0.25
4,LKEV,≤ 0.25
5,EDMA,≤ 0.25
6,KLPP,≤ 0.25
7,FKLW,≤ 0.25
8,RTNY,≤ 0.25
9,ESRW,≤ 0.25
10,MLRF,≤ 0.25
11,SMPY,≤ 0.25
12,GDHC,≤ 0.25
13,DTGA,≤ 0.25
14,RALP,≤ 0.25
15,SKMS,5.22
16,AQPY,≤ 0.25
17,YVMA,0.597
18,DKPR,≤ 0.25
19,PKQN,≤ 0.25
20,IGYH,≤ 0.25
21,WVYI,≤ 0.25
22,IWKP,≤ 0.25
23,DQYG,≤ 0.25
24,LIEN,≤ 0.25

row,Variant,enrichment ratio
1,QAKD,≤ 0.25
2,RWIC,≤ 0.25
3,FRQM,≤ 0.25
4,IVPQ,≤ 0.25
5,VWGF,≤ 0.25
6,TTAV,6.68
7,FQMM,5.91
8,KRMS,≤ 0.25
9,NDWI,≤ 0.25
10,KPDG,≤ 0.25
11,NKVE,≤ 0.25
12,TFPW,≤ 0.25
13,RQIS,≤ 0.25
14,WRPT,≤ 0.25
15,FIGI,≤ 0.25
16,FSWG,≤ 0.25
17,QFWM,≤ 0.25
18,AIPV,1.47
19,EDDS,≤ 0.25
20,VIML,0.384
21,WDRG,≤ 0.25
22,AKED,≤ 0.25
23,RCRQ,≤ 0.25
24,SDNI,≤ 0.25

row,Variant,enrichment ratio
1,TCMV,14.6
2,EQEG,≤ 0.25
3,HLQP,≤ 0.25
4,SMNT,≤ 0.25
5,KYYN,≤ 0.25
6,NRMI,≤ 0.25
7,VLIR,≤ 0.25
8,PQYP,≤ 0.25
9,WFYR,0.626
10,PRLN,≤ 0.25
11,MAQL,≤ 0.25
12,RFNP,≤ 0.25
13,ARHD,≤ 0.25
14,HPSM,≤ 0.25
15,NKKP,≤ 0.25
16,NKCD,≤ 0.25
17,KGAW,≤ 0.25
18,HRSW,≤ 0.25
19,HPCK,≤ 0.25
20,WRKV,≤ 0.25
21,TFID,≤ 0.25
22,LHYG,≤ 0.25
23,FWIE,≤ 0.25
24,TWIH,≤ 0.25

row,Variant,enrichment ratio
1,DGYW,≤ 0.25
2,WWAH,≤ 0.25
3,SMEV,≤ 0.25
4,GMGS,≤ 0.25
5,HIPT,≤ 0.25
6,GGEG,≤ 0.25
7,VMNV,≤ 0.25
8,WKKE,≤ 0.25
9,NRMA,≤ 0.25
10,GWSK,≤ 0.25
11,ARCN,≤ 0.25
12,LPRP,≤ 0.25
13,GLVN,≤ 0.25
14,GVLI,15.6
15,LLEV,≤ 0.25
16,ILER,≤ 0.25
17,NWAV,≤ 0.25
18,ACAN,15.5
19,MTFW,≤ 0.25
20,ATCG,16.1
21,PTYT,≤ 0.25
22,NAYA,≤ 0.25
23,PKMP,≤ 0.25
24,VWHR,≤ 0.25

row,Variant,enrichment ratio
1,EMQI,≤ 0.25
2,WPCM,≤ 0.25
3,LLDP,≤ 0.25
4,RKAE,≤ 0.25
5,VTWH,≤ 0.25
6,ANVM,14.9
7,SDAH,3.67
8,VCYQ,≤ 0.25
9,WNKL,≤ 0.25
10,LVRG,≤ 0.25
11,LIKM,≤ 0.25
12,KIHN,≤ 0.25
13,YIHY,≤ 0.25
14,FCMP,≤ 0.25
15,RSTW,≤ 0.25
16,VLVY,≤ 0.25
17,NCRM,≤ 0.25
18,NQVN,≤ 0.25
19,IENL,≤ 0.25
20,RYGL,≤ 0.25
21,PPRV,≤ 0.25
22,DFHW,≤ 0.25
23,VIGY,≤ 0.25
24,TSLG,14.5

row,Variant,enrichment ratio
1,APPQ,≤ 0.25
2,DAAW,≤ 0.25
3,HNRN,≤ 0.25
4,LRFE,≤ 0.25
5,IAIN,≤ 0.25
6,QFGV,≤ 0.25
7,PMMA,≤ 0.25
8,PKAW,≤ 0.25
9,PWPL,≤ 0.25
10,MNCR,≤ 0.25
11,FDFM,≤ 0.25
12,VEFK,≤ 0.25
13,KMCM,≤ 0.25
14,RAYD,≤ 0.25
15,FDSP,≤ 0.25
16,AFVS,≤ 0.25
17,EAYN,≤ 0.25
18,PHQF,≤ 0.25
